Results published in the supplement of paper PMC5499739.
Whole data set: some 16,000 sequences, median “Z-score” near -0.37, cut for the highest 2% near 3.1. The list shows a part of the results.

The sequences below were run on RBM10 RRM1-ZnF-RRM2 (GST-tagged construct) (assay: RNAcompete 7-mer binding Z-score; higher = stronger binding preference).
Summary of the method: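 GST-tagged RBM10 constructs (20 pmol) and a designed pool of 241 399 RNAs up to 41 nt (1.5 nmol) were allowed to bind for 30 min at 4°C in 1 ml Hepes pH 7.8 buffer with glutathione Sepharose beads. After four 2-min washes at 4°C, bound RNA was identified by microarray hybridisation. Enrichment was scored per heptamer motif as a one-sided Z-score across the probes containing it.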

Sequence	RNAcompete 7-mer binding Z-score
ACCUUGU	-0.93
CCUUCUU	-0.806
AGAACAU	-0.398
CGCGGCG	1.09
GAUGCUC	-0.694
GCAUUUG	-0.446
CGUAAGU	-0.162
GCACGGU	0.519
AGAAAGA	0.519
UAGCCUU	-0.755
UCGCUGU	-0.785
UUGGUGC	0.982
GCGUGGG	3.66
CAGGGUA	2.88
GGACAUG	1.94
GUACGCA	-0.158
GUCUAAU	-0.388
CAGACGC	-0.475
UGUCUUA	-0.81
AUCCCUG	-0.825
CCCCCAA	-0.653
AGCGUAA	0.21
ACUUCCG	-0.763
CUAAACG	-0.479

Sequence	RNAcompete 7-mer binding Z-score
CUACUCG	-0.697
CGAAGAA	0.0641
CUGUUUG	-0.606
GCAUCGA	-0.22
CAAAUUA	-0.704
GCUUAUU	-0.861
CUGUCAG	-0.5
UAUCACC	-0.883
AUCCCAU	-0.635
UCGCCCA	-0.825
AUCUGCA	-0.806
CCCGGGA	-0.00148
GUAAUAC	-0.227
UAAAGCG	0.297
UUGACUA	-0.61
CGGGAAC	1.5
ACUCCGG	-0.329
UCGACUC	-0.788
CGUGCAU	-0.402
GGUGGCC	1.21
CACGUCG	-0.388
GUUCUAU	-0.785
UUGGGGC	2.04
UGGAUUU	0.217

Sequence	RNAcompete 7-mer binding Z-score
AAUAACC	-0.555
CGGAGCA	1.02
GUCACCG	-0.457
GAGGAUU	1.16
AUUCGGA	0.243
CUAGCUC	-0.712
GGUGGUC	2.11
GCUUUGU	-0.653
AGAUUGU	-0.162
AGAUUGC	-0.362
CUCGCUU	-0.839
CUAUGUC	-0.785
AAUAUGU	-0.103
GAGAUGG	4
CACAGAA	-0.191
CCUAUGU	-0.825
CUUAAGA	-0.635
ACAUAAA	-0.493
UAUCCCC	-0.653
UAUGUGA	0.144
GCACUCG	-0.424
CUUAUCG	-0.803
ACUCGCA	-0.803
UCAACAC	-0.479

Sequence	RNAcompete 7-mer binding Z-score
UGAUGCC	-0.624
GCAAGUG	0.709
CGUGCAC	-0.388
GUAAACG	0.691
AGCGUAC	-0.34
GUGUCAC	-0.337
CGCGUGU	-0.439
CUCGAGC	-0.595
GCCCAGU	-0.602
GAAGCCG	-0.3
CUACUGA	-0.672
GGUCUGA	-0.296
GUGGCUU	-0.0962
CAUCACU	-0.803
UCCAUCU	-0.905
AAUCGAU	-0.235
UGGGGUC	2.62
CGUGGGU	2.43
CUUUGGU	-0.533
CAAUGAA	-0.271
UUUUCCG	-0.592
UGCACGG	0.836
UGGAUGC	0.778
GCCGUUC	-0.81

Sequence	RNAcompete 7-mer binding Z-score
AGACGCU	-0.999
UUUGACA	-0.65
GCUUAAU	-0.777
UCGCUAC	-0.803
CUGAAGC	-0.471
GUCCGCU	-0.686
CUCGAGU	-0.588
AAAGCAU	-0.246
CCAACAG	-0.136
CCCGAAU	-0.734
ACAGGUU	1.3
UUUGGAA	0.599
GGCCGAC	0.243
CACUUGG	-0.329
AACGAGU	0.472
CGACGAU	-0.304
AAUGGUC	0.822
AGACCAC	-0.952
AACACCC	-0.577
CCGGGAA	0.581
GGUAAAC	1.12
